Data from PubChem BioAssay AID1671188 (National Center for Advancing Translational Sciences (NCATS), 2021).
“And” between values parts separate entries of the source, which are not always exact repeats. Equal entries are not always repeated. About 250 (0.25%) of roughly 100,000 compounds were called active. Inconclusive means that the source gave no clear call. Such entries were picked first, then a sample of the others. Calls come from the whole dose curve; as a rule, active = well fitted inhibition curve with a large enough effect; inconclusive = small, poorly fitted or top-dose-only effect; inactive = flat fitted curve, though single readings scatter. A potency beside an inconclusive call is a rough fit, not a confirmed value. The source holds several records for some structures; these can differ, active in one and inactive in another.

Molecular target: Alanine aminotransferase 2 (Homo sapiens) (UniProt Q8TD30)
Chain of UniProt Q8TD30 (Q8TD30 whole entry, looked up): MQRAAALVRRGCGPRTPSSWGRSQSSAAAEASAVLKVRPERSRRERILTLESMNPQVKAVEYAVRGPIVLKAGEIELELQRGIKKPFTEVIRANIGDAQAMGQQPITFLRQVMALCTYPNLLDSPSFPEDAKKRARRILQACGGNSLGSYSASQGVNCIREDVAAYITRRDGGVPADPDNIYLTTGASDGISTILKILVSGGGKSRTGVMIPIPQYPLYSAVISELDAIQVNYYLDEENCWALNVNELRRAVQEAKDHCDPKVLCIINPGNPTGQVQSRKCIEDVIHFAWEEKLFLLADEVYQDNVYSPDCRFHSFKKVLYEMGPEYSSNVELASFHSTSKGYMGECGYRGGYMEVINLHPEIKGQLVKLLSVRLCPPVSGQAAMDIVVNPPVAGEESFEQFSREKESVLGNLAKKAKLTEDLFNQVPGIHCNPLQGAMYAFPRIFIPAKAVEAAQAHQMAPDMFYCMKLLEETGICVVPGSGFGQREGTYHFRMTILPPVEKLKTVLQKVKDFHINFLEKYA
Experiment: Primary qHTS assay for inhibitors of Glutamate pyruvate transaminase 2 (GPT2); note: nearly all actives have a fitted effect of over 60% in size
Settings: Recombinant GPT2, coupled pyruvate oxidase/HRP Amplex Red fluorescence; activity change, negative = inhibition: at 57.7 µM (top of the series) unless noted; series mostly up to 57.7 µM
Method in brief: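 Recombinant GPT2 (10ng/uL) with 250uM a-KG and 2mM L-alanine, 30 min at room temperature, in HEPES pH 7.5 buffer. Pyruvate detected by pyruvate oxidase/HRP/Amplex Red fluorescence after 30 min in the dark; AOA (50uM) as positive control.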
% is set by controls: 0 for no effect and ±100 for the full control effect; potency is the fitted concentration of half-maximal effect; tags give direction and shape of the fitted curve.

Compound	activity change, negative = inhibition	outcome	Potency
O=[S+]([O-])(NC1CCN(Cc2cccc(-c3cccs3)c2)CC1)c1cccc(C(F)(F)F)c1	inactive: -15.7%	–	–
Cc1ccc(-c2cn3cc(C(=O)NCc4cccs4)nc3s2)cc1	inactive: -13.2% [at 88.5 µM]	–	–
O=C(NC1CCCCC1)N1CCC(c2noc(-c3ccccc3)n2)C1 (stereo not given)	–	inactive	–
CCn1c(CC2CCNCC2)nn(Cc2cc(C3CCCCC3)no2)c1=O	–	–	inconclusive: 2 µM [inhibitor, partial curve, poor fit]
O=C(c1ccc(C(F)(F)F)cc1)N1CCCC(C(=O)N2CCCC(c3nc4ncccc4[nH]3)C2)C1 (stereo not given)	–	–	inconclusive: 10 µM [inhibitor, partial curve, poor fit]
O=C(c1ccc(CN2C(=O)NC3(CCOCC3)C2=O)cc1)N1CCc2ccccc2C1	–	–	inconclusive: 6.31 µM [inhibitor, single point]
Cn1cc(CN[C@H]2[C@H](O)[C@H](O)C[C@@H]2c2ccc(N3CCOCC3)nc2)cn1	–	inactive [at 88.5 µM]	–
O=C(O)C1CCc2nnc(C3CCCN([S+](=O)([O-])c4ccccc4)C3)n21 (stereo not given)	–	–	inconclusive: 1.78 µM [inhibitor, full curve, poor fit]
FC(F)(F)c1ccc(N2C3CCC2CN(Cc2cccc(-c4cccs4)c2)C3)cc1	inactive: 0.581%	–	–
COc1cccc(CNC(=O)c2cc(C(C)(C)C)nc3c2cnn3C)c1	inactive: -8.08%	–	–
COc1ccc(-c2cn3cc(C(=O)NCCc4ccccc4)nc3s2)cc1	inactive: -2.36%	–	–
COC(=O)C1=C(C)N=C2SC=C(CC(=O)NCCC(C)C)N2C1c1ccccc1Cl (stereo not given)	–	–	inconclusive: 35.5 µM [inhibitor, single point]
O=C(Nc1ccccc1)Nc1ccc(=O)n2c1[C@@H]1C[C@@H](CN(S(=O)(=O)c3ccccc3)C1)C2	–	–	inconclusive: 11.2 µM [inhibitor, partial curve]
O=C(NC1CCCCC1)c1ccc2nnc(Cc3ccc(Cl)cc3)n2c1	–	inactive	–
Cc1nc(-c2ccncc2)ncc1C(C)NC(=O)C1=NN(C)C(=O)CC1 (stereo not given)	–	–	inconclusive: 35.5 µM [inhibitor, single point]
Cc1cnc(CC2CCCN(C(=O)Cc3ccccc3)C2)n1C(C)C (stereo not given)	inactive: -2.1%	–	–
O=C(Nc1cccc(Cl)c1)c1ccc2oc(-c3ccccn3)nc2c1	inactive: -3.19%	–	–
O=C(NC1CCCN(c2ccnc3ccnn23)C1)C1CC1 (stereo not given)	–	–	inconclusive: 39.8 µM [inhibitor, single point]
CN(Cc1cnccn1)C(=O)CC(c1ccccc1)c1ccc2c(c1)OCO2 (stereo not given)	–	–	inconclusive: 35.5 µM [inhibitor, single point]
Fc1ccc2c(CCNCc3cccc(OCC(F)(F)C(F)F)c3)c[nH]c2c1	–	inactive	–
COc1ccc(C2Cn3cnc(C(=O)N4CCC(C(=O)NC5CCCCCC5)CC4)c3CO2)cc1 (stereo not given)	–	–	inconclusive: 31.6 µM [inhibitor, single point]
CCc1nc2c(c(-c3ccc(Cl)cc3)n1)CN(C(=O)c1ccccc1F)CC2	–	–	inconclusive: 10 µM [inhibitor, partial curve, poor fit]

Compound	activity change, negative = inhibition	outcome	Potency
O=C(c1cccs1)N1CCC2(CC1)CN(Cc1ccccc1)CC2CO (stereo not given)	–	–	inconclusive: 39.8 µM [inhibitor, single point]
Cc1ccc(C(=O)N2CC3(C2)NC(=O)c2ccccc2O3)cc1	–	–	inconclusive: 10 µM [inhibitor, single point]
CC[C@H]1CN(C(=O)Nc2cccc(C(F)(F)F)c2)CC[C@H]1CC(=O)NCc1ccc(F)cc1	–	–	inconclusive: 39.8 µM [inhibitor, single point]
CCc1nncn1C1CCN(S(=O)(=O)c2ccc(Cl)s2)C1 (stereo not given)	–	–	inconclusive: 10 µM [inhibitor, partial curve]
O=C(C1CC1)N1CCCC(C(=O)N2CCCC2c2nc3ccncc3[nH]2)C1 (stereo not given)	–	–	inconclusive: 39.8 µM [inhibitor, single point]
CCOc1cccc(CNC(=O)C2CCCCC(=O)N2Cc2cccc(OC)c2)c1 (stereo not given)	–	–	inconclusive: 35.5 µM [inhibitor, single point]
COc1ccc(N2CCN(C(=O)COc3ccc(-c4nnc5n4CCCC5)cc3)CC2)cc1	inactive: -23.5%	–	–
COCC(=O)NC[C@H]1O[C@@H](CO)[C@@H](O)[C@H]1N1CCc2ccccc2C1	–	–	inconclusive: 8.91 µM [inhibitor, single point]
C#CCN(C)C(=O)[C@@H](C)C1CC[C@@]2(C)Cc3sc(NCCCC)nc3[C@@H](C)[C@@H]2[C@H]1O (stereo not given in full)	–	–	inconclusive: 56.2 µM [inhibitor, single point]
COc1ccc(-n2nc(C3CCCN(C(=O)C4CC4)C3)[nH]c2=O)cc1 (stereo not given)	–	inactive [at 88.5 µM]	–
Cc1ccccc1N1CCN(C2CCCN(C(=O)c3ccc(-c4ccco4)cc3)C2)CC1 (stereo not given)	–	–	inconclusive: 6.31 µM [inhibitor, single point]
CNC(=O)N1CCC(C2CCN(Cc3ccc(F)c(OC)c3)C2)CC1 (stereo not given)	inactive: -5.84%	–	–
COCCCNC(=O)C1c2ccccc2CC(=O)N1Cc1ccccc1 (stereo not given)	–	–	inconclusive: 39.8 µM [inhibitor, single point]
COCCNC(=O)[C@@H]1C[C@H](Oc2cccnc2)CN1S(=O)(=O)c1ccc2c(c1)CCC2	–	–	inconclusive: 3.98 µM [inhibitor, single point]
Cc1cc(Cl)ccc1NC(=O)N1CCCC(Cn2cnc3cccnc32)C1 (stereo not given)	–	inactive	–
CC(=O)Nc1cccc(C(=O)N2CCC3(CC2)NC(=O)N(c2cccc(Cl)c2)N3)c1	–	–	inconclusive: 39.8 µM [inhibitor, single point]
CCc1nc2c(c(-c3ccc(O)cc3)n1)CCN(Cc1ccccn1)CC2	–	–	inconclusive: 6.31 µM [inhibitor, single point]
Cc1cc(C)c2[nH]c(C(=O)N(C)Cc3ccc4nsnc4c3)c(C)c2c1	inactive: -7.42% [at 11.5 µM]	–	–
CC[C@H]1CN(C(=O)Nc2cccc(C(F)(F)F)c2)CC[C@H]1CC(=O)Nc1ccccc1	–	–	inconclusive: 28.2 µM [inhibitor, single point]
O=C(O)C[C@@H]1CCN(C(=O)C2CCCC2)C[C@@H]1CC1=NCCc2cc(F)ccc21	–	–	inconclusive: 1.26 µM [inhibitor, full curve, poor fit]
CS(=O)(=O)c1ccc(CN2C[C@H](O)C[C@H]2c2nc(-c3ccc(F)cc3)no2)cc1	inactive: 4.29% [at 88.5 µM]	–	–
O=c1c(O)c(-c2ccc(O)c(O)c2)oc2cc(O)cc(O)c12	–	–	active: 13.7 µM and inconclusive: 10 µM [inhibitor, partial curve, poor fit]

Compound	activity change, negative = inhibition	outcome	Potency
Cc1nn2c(c1-c1ccccc1-c1ccccc1)N(Cc1ccc(O)cc1)CCC2	inactive: -7.07% [at 88.5 µM]	–	–
CN(C)c1ccc(CN2CCC3(CC2)C(=NC2CCCCC2)NC(=O)N3c2cc(F)cc(F)c2)cc1	inactive: 4.62%	–	–
O=C1OC[C@@H]2CCN(Cc3ccc(F)c(F)c3)Cc3ccc(F)cc3N12	–	–	inconclusive: 28.2 µM [inhibitor, partial curve]
COc1cccc(NC(=O)N2CCC(c3cc(-c4cccc(C)c4)n[nH]3)CC2)c1	inactive: -12.6%	–	–
CC1Oc2ccc(NC(=O)C3CC3)cc2CN(CCc2ccc(F)cc2)C1=O (stereo not given)	–	–	inconclusive: 0.708 µM [inhibitor, partial curve, poor fit]
C[S+](=O)([O-])N1Cc2ccccc2CC2(CCCN(CC3CCCC3)C2)C1 (stereo not given)	–	–	inconclusive: 3.98 µM [inhibitor, full curve, poor fit]
CC1Oc2ccc(NC(=O)c3ccccc3Cl)cc2CN(Cc2ccccc2F)C1=O (stereo not given)	–	–	inconclusive: 4.47 µM [inhibitor, single point]
COc1ccc(NC(=O)c2cc3sc(C)c(CN4CCCCC4)c3[nH]2)cc1OC	–	–	inconclusive: 31.6 µM [inhibitor, single point]
Cc1ccc(C(=O)N2CCC3(CC2)NC(=O)N(c2ccc(F)cc2)N3)c(C)c1	–	–	inconclusive: 39.8 µM [inhibitor, single point]
O=C(c1ccc(C(F)(F)F)cc1)N1CCC([C@@H]2CNC[C@H]2CO)CC1	–	–	inconclusive: 35.5 µM [inhibitor, single point]
COc1cccc(-c2n[nH]c3c2CC(=O)N(CC2CCOCC2)C3)c1	–	–	inconclusive: 4.47 µM [inhibitor, full curve, poor fit]
O=C1NC(=NC2CCCC2)C2(CCN(Cc3ccc(F)cc3)C2)N1c1cc(F)cc(F)c1 (stereo not given)	–	–	inconclusive: 6.31 µM [inhibitor, single point]
Cc1cccc(CC(=O)N2CCCN(c3cc(-c4ccc(Cl)cc4)[nH]n3)CC2)c1	–	–	inconclusive: 31.6 µM [inhibitor, single point]
O=C(Cn1cccc1-c1nc(-c2ccc(F)cc2)no1)N1CCc2ccccc21	inactive: 0.0684%	–	–
CC1(C)CN(Cc2cn(Cc3ccccc3)nc2-c2cc3ccccc3o2)CCO1	–	–	inconclusive: 39.8 µM [inhibitor, single point]
COc1ccc(CN2CCN(C(c3ccc(F)cc3)c3ccc(F)cc3)CC2)c(OC)c1OC	–	–	inconclusive: 7.08 µM [inhibitor, single point]
COc1ccc(C(=O)NC2CCN(c3cc(-c4cccs4)[nH]n3)C2)c(OC)c1 (stereo not given)	–	–	inconclusive: 10 µM [inhibitor, partial curve]
[Cl][In]([Cl])[Cl]	–	–	inconclusive: 4.47 µM [inhibitor, partial curve, poor fit]
Clc1ccc2c(c1)C1=NCCN1c1c(-c3noc(C4CC4)n3)ncn1-2	–	–	inconclusive: 6.31 µM [inhibitor, single point]
O=C(NC1CCCNC1)C1CCN(c2nc(-c3ccccc3)nc3c2CCC3)CC1 (stereo not given)	–	inactive	–
CNC(=O)C1CCCN(Cc2cccc(-c3ccc(F)cc3F)c2)C1 (stereo not given)	–	inactive [at 88.5 µM]	–
